SMILES strings stand for the structures. The list shows a part of the results. The main result of the screen is listed elsewhere. These columns were measured beside it and carry no call.

Holding throughout (assay): Primary Screen for Target Class Profiling of Small Molecule Inhibitors of Methyltransferases
Assay [1] concerns the target Glycine N-methyltransferase (Homo sapiens) (UniProt Q14749). The conditions noted are these: purified enzyme, MTase-Glo SAH luminescence; measured here: GNMT inhibition; at 40 µM; stronger effect = lower value. A digest of the protocol:
(§1)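 Each enzyme was assayed with SAM and its substrate. SAH formation detected by MTase-Glo luminescence; single-point 40 uM screen[…].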

In assay [2] the target is Guanidinoacetate N-methyltransferase (Homo sapiens) (UniProt Q14353). The conditions noted are these: purified enzyme, MTase-Glo SAH luminescence; measured here: GAMT inhibition; at 40 µM; stronger effect = lower value. The method in brief: as §1
Assay [3] concerns the target Histamine N-methyltransferase (Homo sapiens) (UniProt P50135). The settings on record: purified enzyme, MTase-Glo SAH luminescence; measured here: HNMT inhibition; at 40 µM; stronger effect = lower value. A digest of the protocol:
as §1

In assay [4] the target is Nicotinamide N-methyltransferase (Homo sapiens) (UniProt P40261). The settings on record: purified enzyme, MTase-Glo SAH luminescence; measured here: NNMT inhibition; at 40 µM; stronger effect = lower value. A digest of the protocol: as §1
Assay [5] concerns the target Phenylethanolamine N-methyltransferase (Homo sapiens) (UniProt P11086). The settings on record: purified enzyme, MTase-Glo SAH luminescence; measured here: PNMT inhibition; at 40 µM; stronger effect = lower value. A digest of the protocol: as §1
% is scaled to controls: 0 for no effect and ±100 for the full control effect.

For `C=CC(C)(C)C1(CC2NC(=O)C3CCCN3C2=O)C(=O)Nc2cc3c(cc21)C=CC(C)(C)O3` (stereo not given), the activity change, negative = inhibition in assay [1] was 5.82%; in assay [2], 4.93%; in assay [3], 8.4%; in assay [4] it was -9.72%; in assay [5], 3.76%.

`O=C(CSc1nnc2n(CCc3ccccc3)c(=O)c3ccccc3n12)Nc1ccc2c(c1)OCO2`: the activity change, negative = inhibition in assay [1] was 0.326%; in assay [2], 2.26%; in assay [3], 7.17%; in assay [4], -4.59%; in assay [5] it was 2.85%.

Take `O=C(Cn1ccnc1)N1CCC(N2C(=O)C3(CCCC3)C2c2ccccc2)CC1` (stereo not given): the activity change, negative = inhibition in assay [1] is 0.026%; in assay [2] it was 2.95%; in assay [3], -0.998%; in assay [4] it was -8.12%; in assay [5] it was 13.4%.

As for `CC(=O)O[C@H]1C[C@H](OC(C)=O)[C@]2(C)[C@H](CC[C@@]34O[C@@H]3C3=C(C)C(=O)O[C@@H]3C[C@H]42)C1(C)C`, the activity change, negative = inhibition is -2.21% in assay [1]; -0.165% in assay [2]; 2.38% in assay [3]; -8.02% in assay [4]; -8.48% in assay [5].

For `O=C(NCc1ccccc1)C1CCN(c2cnc3nccnc3c2)CC1`, the activity change, negative = inhibition in assay [1] was -4.79%; in assay [2] it was 3.16%; in assay [3], 0.312%; in assay [4], -4.23%; in assay [5], 11.8%.

For `Cc1ccc(NC(=O)Cn2nc3nc(Nc4ccc(C)cc4)ccn3c2=O)cc1`, the activity change, negative = inhibition in assay [1] is -2.48%; in assay [2] it was 4.65%; in assay [3] it was -6.84%; in assay [4] it was -4.32%; in assay [5], -4.91%.

As for `CC(=O)OC1C(O)/C(C)=C\C2C(OC(=O)c3ccccc3)C(C)CC2(OC(C)=O)C(OC(C)=O)C(C)/C=C/C(C)(C)C1OC(C)=O` (stereo not given), the activity change, negative = inhibition in assay [1] was -4.14%; in assay [2], -9.25%; in assay [3] it was 5.64%; in assay [4], -26.2%; in assay [5], 1.16%.

As to `COc1ccccc1N1CCN(CCCCNC(=O)c2ccc3ccccc3c2)CC1`, the activity change, negative = inhibition in assay [1] was 11.4%; in assay [2], 14.7%; in assay [3], -0.892%; in assay [4] it was -9.8%; in assay [5], -2.05%.

`CCOC(=O)c1cc2n(n1)CC(C)(C(=O)NCCC(C)C)N(c1ccc(Cl)cc1C)C2=O` (stereo not given): the activity change, negative = inhibition was -3.34% in assay [1]; 0% in assay [2]; 3.06% in assay [3]; 4.58% in assay [4]; -3.45% in assay [5].

For the compound `CN1C(=O)c2cc3ccccc3n2CC1(C)C(=O)NCC(=O)NCc1cccc(Cl)c1` (stereo not given), the activity change, negative = inhibition was 0.688% in assay [1]; 0% in assay [2]; 0.74% in assay [3]; 7.29% in assay [4]; -1.75% in assay [5].

In the case of `CN(C)C[C@@H]1CN(c2ncccn2)C[C@H]1NS(=O)(=O)c1ccc(Cl)cc1`, the activity change, negative = inhibition in assay [1] is -7.25%; in assay [2], -11.8%; in assay [3], -2.57%; in assay [4] it was -10.3%; in assay [5], -6.76%.

Take `C[C@]1(CO)CN(c2cc(C(=O)Nc3ccc4c(c3)-c3c(c(C(N)=O)nn3-c3ccc(F)cc3)CC4)c(Cl)cn2)C[C@@]1(C)CO`: the activity change, negative = inhibition in assay [1] was -14.6%; in assay [2], -5.07%; in assay [3], -7.95%; in assay [4], -24.1%; in assay [5] it was -8.41%.

`C1CCN2CC3C[C@@H](CN4CCCC[C@@H]34)[C@H]2C1`: the activity change, negative = inhibition was 2.89% in assay [1]; 4.9% in assay [2]; -14.6% in assay [3]; -8.06% in assay [4]; 3.38% in assay [5].

For `CSc1ccc(C(=O)N2C[C@@H](CN3CCN(C)CC3)[C@@H](CO)C2)cc1`, the activity change, negative = inhibition in assay [1] is -6.63%; in assay [2], -5.34%; in assay [3], -5.74%; in assay [4] it was -10%; in assay [5], 1.4%.

`COc1ccccc1C(=O)N1CCC2(C1)C(=NC1CCCCC1)NC(=O)N2c1cc(F)cc(F)c1` (stereo not given): the activity change, negative = inhibition was -5.22% in assay [1]; -3.25% in assay [2]; -2.5% in assay [3]; -6.67% in assay [4]; -1.47% in assay [5].

As for `CC1(C(=O)NC2CCCCCC2)Cn2c(cc3occc32)C(=O)N1CCCN1CCCCCC1` (stereo not given), the activity change, negative = inhibition in assay [1] is -4.73%; in assay [2] it was -2.66%; in assay [3], -8.52%; in assay [4], -4.42%; in assay [5], -3.71%.

Take `Cc1n[nH]c(C)c1Cc1sc2c(c1C(=O)N1C[C@H](O)CO1)c(=O)n(C)c(=O)n2CC(C)C`: the activity change, negative = inhibition is -8.57% in assay [1]; -24.8% in assay [2]; 4.5% in assay [3]; -24.5% in assay [4]; -5.07% in assay [5].

Consider `COCC(=O)N[C@H]1CCN(C(=O)COC)[C@H](C(=O)N[C@H](Cc2c[nH]c3ccccc23)C(N)=O)C1`, for which the activity change, negative = inhibition was -3.19% in assay [1]; -4.76% in assay [2]; -1.09% in assay [3]; -14.1% in assay [4]; 6.34% in assay [5].

`C/C=C1/[C@H](O[C@@H]2O[C@H](CO)[C@@H](O)[C@H](O)[C@H]2O)OC=C(C(=O)OC)[C@H]1CC(=O)OCCc1ccc(OC(=O)C[C@@H]2C(C(=O)OC)=CO[C@@H](O[C@@H]3O[C@H](CO)[C@@H](O)[C@H](O)[C@H]3O)/C2=C/C)cc1`: the activity change, negative = inhibition was -1.04% in assay [1]; 2.08% in assay [2]; 9.09% in assay [3]; -10.4% in assay [4]; 6.89% in assay [5].

In the case of `CCCC1c2cccn2CCN1C(=O)NC(C)C` (stereo not given), the activity change, negative = inhibition in assay [1] is -7.41%; in assay [2], 3.39%; in assay [3] it was -12.2%; in assay [4] it was -13.6%; in assay [5] it was -5.91%.

`Cc1ccc(NC(=O)Cn2nc3n(CC(C)C)c(=O)c4ccc(C(=O)NC(C)C)cc4n3c2=O)c(C)c1`: the activity change, negative = inhibition in assay [1] is -0.202%; in assay [2] it was -2.86%; in assay [3], 1.08%; in assay [4], -0.983%; in assay [5], -2.82%.

Regarding `COc1ccc(OCc2nc(C)c(CCO)c(=O)n2CC(=O)NC(C)CCc2ccccc2)cc1` (stereo not given), the activity change, negative = inhibition in assay [1] was -0.865%; in assay [2], -0.048%; in assay [3], -0.196%; in assay [4] it was -3.31%; in assay [5], -3.21%.

As to `CNC(=O)c1cc(C2CC2)nc2c1c(C1CCCN(C(=O)Cc3ccccn3)C1)nn2C` (stereo not given), the activity change, negative = inhibition was 0.665% in assay [1]; -0.973% in assay [2]; 2.09% in assay [3]; -1.37% in assay [4]; 1.25% in assay [5].

As to `Cc1ccc(CCNS(=O)(=O)c2ccc3c(c2)n(C)c(=O)n3C)cc1`, the activity change, negative = inhibition was -2.14% in assay [1]; 3.74% in assay [2]; -6.78% in assay [3]; -12.8% in assay [4]; -11.6% in assay [5].

For the compound `CCOC(=O)c1cc2n(n1)CC(C)(C(=O)NC1CCCC1)N(c1cc(Cl)ccc1C)C2=O` (stereo not given), the activity change, negative = inhibition in assay [1] is 3.46%; in assay [2], 0.442%; in assay [3] it was -16%; in assay [4], -1.04%; in assay [5], 4.48%.

Consider `Cc1ccc(CCN2C(=O)CSc3c(c4ccccc4n3C)C2C(=O)NCc2ccccc2)cc1` (stereo not given), for which the activity change, negative = inhibition is 0.102% in assay [1]; 0.037% in assay [2]; -0.566% in assay [3]; 3.78% in assay [4]; -0.037% in assay [5].

On to `COc1cccc(CN2CC(=O)N(Cc3ccc(F)cc3)c3ccccc3S2(=O)=O)c1`, for which the activity change, negative = inhibition was 9.21% in assay [1]; 0% in assay [2]; 9.72% in assay [3]; -2.28% in assay [4]; 3.22% in assay [5].

In the case of `COc1c2c(c(C)c3c1C(=O)OC3)OC1(C)CC(O)C34OC(OC)(CC(OC(C)=O)C3(C)C1C2)OC4(C)C` (stereo not given), the activity change, negative = inhibition in assay [1] is -2.52%; in assay [2], 2.28%; in assay [3], 7.36%; in assay [4] it was -12.2%; in assay [5], 0.659%.

For the compound `Cc1ccc(N2CC(C)N(C(=O)c3ccc(-n4cnnn4)cc3)CC2=O)cc1` (stereo not given), the activity change, negative = inhibition in assay [1] is -0.756%; in assay [2], 0.453%; in assay [3], 1.22%; in assay [4] it was -0.969%; in assay [5], -16.1%.

Turning to `CC1(C(=O)NC2CCCCC2)Cn2nc(-c3cccs3)cc2C(=O)N1Cc1cccc(F)c1` (stereo not given), the activity change, negative = inhibition in assay [1] was -8.98%; in assay [2] it was 3.46%; in assay [3] it was -2.92%; in assay [4], -6.14%; in assay [5], -4.79%.

Take `CC(C)C[C@@H](NC(=O)[C@@H]1C[C@@H](NC(=O)c2cnccn2)CCN1C(=O)COCC(=O)O)C(N)=O`: the activity change, negative = inhibition in assay [1] is -2.12%; in assay [2], 1.3%; in assay [3], -0.606%; in assay [4], -0.713%; in assay [5], 14.3%.

For `CCC(C)NC(=O)CCc1nnc2n(CCc3ccccc3)c(=O)c3ccccc3n12` (stereo not given), the activity change, negative = inhibition was 1.2% in assay [1]; 2.85% in assay [2]; 2.38% in assay [3]; 0.552% in assay [4]; -2.75% in assay [5].

Consider `CCCNc1nc2c(-c3cccc(F)c3)nnn2c2ccc(Cl)cc12`, for which the activity change, negative = inhibition in assay [1] is -3.98%; in assay [2], 2.51%; in assay [3], 1.26%; in assay [4], -6.27%; in assay [5], -6.23%.

`CC(=O)NCCNc1nc2c(-c3cccc(C)c3)nnn2c2ccc(Cl)cc12`: the activity change, negative = inhibition in assay [1] came out at 4.54%; in assay [2] it was 1.16%; in assay [3], 8.66%; in assay [4], 9.62%; in assay [5] it was 0.225%.

With `O=C(Nc1ccccc1F)C1CN(C2CCCCC2)C(=O)N1` (stereo not given), the activity change, negative = inhibition is -3.23% in assay [1]; -2.8% in assay [2]; -0.925% in assay [3]; -14.4% in assay [4]; -6.01% in assay [5].

(Values after PubChem BioAssay AID1745853 (National Center for Advancing Translational Sciences (NCATS), 2022).)
